# Among all 360,000 compounds or so, about 25,000 (6.9%) were called active. Inconclusive means that the source gave no clear call. Such entries were picked first, then a sample of the others. The call rests on the fitted dose curve; in most records, active means well fitted inhibition curve with a large enough effect; inconclusive means small, poorly fitted or top-dose-only effect; inactive means flat fitted curve, though single readings scatter. A potency beside an inconclusive call is a rough fit, not a confirmed value.
# Target: Luciferin 4-monooxygenase (Photinus pyralis) (UniProt P08659)
# Chain of UniProt P08659 (P08659 whole entry, looked up): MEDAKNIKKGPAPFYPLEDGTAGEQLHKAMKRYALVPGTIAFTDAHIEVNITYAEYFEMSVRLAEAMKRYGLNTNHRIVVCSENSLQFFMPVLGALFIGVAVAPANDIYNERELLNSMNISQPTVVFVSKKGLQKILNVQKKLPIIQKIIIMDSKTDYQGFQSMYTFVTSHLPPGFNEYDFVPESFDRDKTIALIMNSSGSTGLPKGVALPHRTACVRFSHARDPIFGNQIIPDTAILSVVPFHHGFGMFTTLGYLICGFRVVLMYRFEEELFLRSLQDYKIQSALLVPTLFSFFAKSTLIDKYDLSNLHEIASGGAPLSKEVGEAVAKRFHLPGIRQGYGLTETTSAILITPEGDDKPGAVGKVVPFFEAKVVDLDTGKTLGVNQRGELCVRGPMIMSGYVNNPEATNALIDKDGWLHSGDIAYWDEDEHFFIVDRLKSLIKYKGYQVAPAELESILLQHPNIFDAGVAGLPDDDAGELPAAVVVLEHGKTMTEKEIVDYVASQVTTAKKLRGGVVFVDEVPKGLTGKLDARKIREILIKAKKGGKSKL
# Assay: qHTS profiling assay for firefly luciferase inhibitor/activator using purifed enzyme and Km concentrations of substrates (counterscreen for miR-21 project); further: nearly all actives have a fitted effect of over 55% in size
# Details: purified FLuc, luminescence inhibition; series mostly up to 57.5 µM
# Outline: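 Purified P. pyralis luciferase (10nM final) with 10uM D-luciferin and 10uM ATP (Km levels) in 50mM Tris acetate pH 7.5, 10mM Mg acetate, 0.01% Tween-20, 0.05% BSA; qHTS 6-point titration, ~60 µM downward; luminescence read.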
# Potency means the concentration at half of the fitted maximal effect; tags describe the fitted curve by direction and shape.
row,Compound,Potency
1,COc1cccc(NC(=O)C2Cc3ccccc3CN2C(=O)c2ccco2)c1 (configuration not stated),"inconclusive: 30.1 µM [inhibitor, partial curve, poor fit]"
2,N#Cc1ccccc1NC(=O)Nc1ccc(Cl)cc1,"inconclusive: 6.75 µM [inhibitor, partial curve]"
3,CCCc1nc2sc3c(=O)n(N)cnc3c2c2c1CCCC2,inactive
4,COc1ccc(OC)c(C2CC(=O)N3CN(c4ccccc4)CSC3=C2C#N)c1 (configuration not stated),"inconclusive: 12 µM [inhibitor, partial curve]"
5,COc1ccc(NC(=O)N/C=C/c2ccco2)cc1,"inconclusive: 30.1 µM [inhibitor, partial curve, poor fit]"
6,COc1ccc(-c2nnc(Nc3nc4c(OC)cccc4s3)o2)c(OC)c1,active: 9.53 µM
7,CCOP(=O)(OCC)c1ccccc1OCP(C)(=O)COc1ccccc1P(=O)(OCC)OCC,inactive
8,Cc1sc(NC(=O)C2c3ccccc3Oc3ccccc32)c(C(=O)OC(C)C)c1C,inactive
9,O=C(CCSc1ccc(Cl)cc1)N1CCCCCC1,active: 19 µM
10,CCc1nn2c(=O)c(S(=O)(=O)Nc3ccc(C)cc3C)c(C)nc2s1,inactive
11,COc1ccc(NC(=O)Nc2nnc(C(C)C)s2)cc1,active: 21.3 µM
12,COC(=O)c1sc(NC(=O)Cc2cccs2)nc1C,"inconclusive: 23.9 µM [inhibitor, single point]"
13,Cc1c(NC(=O)CCC2CCCCC2)c(=O)n(-c2ccccc2)n1C,inactive
14,Cc1cc(NC(=O)CSc2nc3c(cc2C#N)CCCC3)no1,"inconclusive: 26.9 µM [inhibitor, single point]"
15,COc1ccccc1/C=C/C=N/n1c(-c2ccco2)n[nH]c1=S,"inconclusive: 13.5 µM [inhibitor, partial curve]"
16,O=C(CSc1nc2ccccc2n1S(=O)(=O)c1ccccc1)N1CCCC1,"inconclusive: 37.9 µM [inhibitor, partial curve, poor fit]"
17,O=C1CS/C(=N/N=C/c2cccs2)N1,"inconclusive: 26.9 µM [inhibitor, partial curve]"
18,COc1ccc(C(=O)CN2C(=O)c3ccccc3C2=O)cc1,active: 16.9 µM
19,Cc1nc2nc(-c3ccc(F)cc3)cn2nc1C,active: 2.13 µM
20,Cc1ccc(S(=O)(=O)c2nnn3c2nc(N(C)Cc2ccccc2)c2cc(Cl)ccc23)cc1C,inactive
21,COc1ccc(C2C(C(=O)Nc3cccnc3)=C(C)Nc3nc(-c4ccc(OC)c(OC)c4)nn32)cc1 (configuration not stated),inactive
22,CCc1c(C)nc(Nc2nc(C)c3cc(OC)ccc3n2)[nH]c1=O,"inconclusive: 21.3 µM [inhibitor, single point]"
23,Oc1ccccc1-c1nc2c3ccccc3c3ccccc3c2[nH]1,"inconclusive: 21.3 µM [inhibitor, single point]"
24,CCOC(=O)c1c(C)[nH]c(CCC(=O)NCc2cc(Br)ccc2OC)c1C,inactive

row,Compound,Potency
1,O=C(Nc1ccc(OCC(=O)N2CCOCC2)cc1)Nc1cccc(Cl)c1,active: 12 µM
2,NS(=O)(=O)c1c(Sc2ccccc2C(=O)O)ccc2ccccc12,"inconclusive: 21.3 µM [inhibitor, single point]"
3,CCCNC(=O)c1ccccc1NC(=O)CN(c1ccccc1)S(=O)(=O)N(C)C,inactive
4,O=C(NCCOc1ccccc1)c1cc(S(=O)(=O)N2CCOCC2)ccc1F,inactive
5,O=S(=O)(c1cccc(-c2nc3n(n2)Cc2ccccc2-3)c1)N1CCCC1,active: 15.1 µM
6,CCn1c(C(=O)N2CCc3ccccc3C2)cc2oc3ccccc3c21,"inconclusive: 37.9 µM [inhibitor, partial curve, poor fit]"
7,COc1ccc(OC)c(C(=O)NC(CC(N)=O)c2ccc(N3CCN(c4ccccn4)CC3)c([N+](=O)[O-])c2)c1 (configuration not stated),inactive
8,CC(C)(C)NC(=S)Nc1ccc(Nc2ccccc2)cc1,"inconclusive: 37.9 µM [inhibitor, partial curve, poor fit]"
9,COc1ccc(NC(=O)c2ccc3nc(C)sc3c2)cc1,"inconclusive: 10.7 µM [inhibitor, partial curve]"
10,CCOc1ccc(NC(=O)CSc2nc(-c3ccccc3)c3cc(OCC)ccc3n2)cc1,inactive
11,COc1cc2c(cc1OC)-c1cc(N3CCc4ccccc43)nc(=O)n1CC2,"inconclusive: 10.7 µM [inhibitor, partial curve, poor fit]"
12,COc1ccc(NC(=O)CC2Sc3ncnn3C2=O)cc1 (configuration not stated),"inconclusive: 37.9 µM [inhibitor, partial curve, poor fit]"
13,CCc1ccc(C(CNC(=O)c2ccc3c(=O)n(-c4ccccc4F)c(=S)[nH]c3c2)N(C)C)cc1 (configuration not stated),"inconclusive: 33.8 µM [inhibitor, partial curve, poor fit]"
14,O=C(c1cc(S(=O)(=O)N2CCCC2)c[nH]1)N1CCN(c2cccc(Cl)c2)CC1,inactive
15,CC(C)(C)C(=O)Nc1ccc(C(=O)NNC(=O)c2ccccc2)cc1,"inconclusive: 37.9 µM [inhibitor, partial curve, poor fit]"
16,CCOc1ccc2nc(N(Cc3cccnc3)C(=O)c3ccco3)sc2c1,active: 16.9 µM
17,Cc1cc(N2CCOCC2)n2ncc(-c3ccccc3Cl)c2n1,active: 2.69 µM
18,N#C/C(=N\Nc1ccc(Cl)cc1)C(=O)c1ccccc1,"inconclusive: 26.9 µM [inhibitor, partial curve, poor fit]"
19,O=C(CCNS(=O)(=O)c1ccc(Br)s1)Nc1ccc(Br)cc1,"inconclusive: 37.9 µM [inhibitor, partial curve, poor fit]"
20,CCCc1cc(NCc2ccccn2)n2nc(C)c(-c3ccccc3)c2n1,inactive
21,COC(=O)c1cc(NC(=O)c2cccc(F)c2)cc(C(=O)OC)c1,"inconclusive: 23.9 µM [inhibitor, partial curve, poor fit]"
22,Cc1nonc1C(=O)N/N=C/c1ccncc1,"inconclusive: 19 µM [inhibitor, single point]"
23,Cc1ccccc1SCC(=O)OCC(=O)NCCNC(=O)COC(=O)CSc1ccccc1C,inactive
24,Cc1ccc(N(Cc2ccccc2)C(=O)CN2C(=O)NC3(CCCC3)C2=O)cc1,"inconclusive: 8.49 µM [inhibitor, partial curve, poor fit]"

row,Compound,Potency
1,CCn1c(C)nc2cc(C(=O)NNC(=S)Nc3ccccc3)ccc21,active: 12 µM
2,COc1cc(NS(=O)(=O)c2ccc(NC(=O)COc3ccc(Cl)cc3Cl)cc2)nc(OC)n1,"inconclusive: 9.53 µM [inhibitor, partial curve]"
3,CCN(C(=O)COC(=O)c1cccnc1Nc1ccccc1F)C1CCS(=O)(=O)C1 (configuration not stated),"inconclusive: 0.953 µM [inhibitor, full curve, poor fit]"
4,COc1ccc(CN(C(=O)Nc2cc(C)ccc2C)C2CCN(C(C)=O)CC2)cc1,inactive
5,COC(=O)c1c(C(=O)OC)c2cc(C(=O)c3ccccc3)ccn2c1Cl,"inconclusive: 26.9 µM [inhibitor, single point]"
6,CN1CCN(C(=O)c2ccc(COc3cc(Cl)ccc3Cl)o2)CC1,inactive
7,Cc1ccc2nc(NC(=O)C3CCCN(S(=O)(=O)c4cccc5nsnc45)C3)sc2c1 (configuration not stated),"inconclusive: 23.9 µM [inhibitor, partial curve, poor fit]"
8,Cc1cccc(NC(=O)NCc2ccccn2)c1,"inconclusive: 23.9 µM [inhibitor, partial curve, poor fit]"
9,Cc1ccc(NC(=O)C2=C(c3ccccc3)S(=O)(=O)CCS2(=O)=O)cc1,inactive
10,CC(C)Cn1nc(NC(=O)C(C)(C)C)c2cc3ccccc3nc21,inactive
11,CCc1ccc(NC(=O)N2CCN(c3nnc(C)c4c(C)n(-c5ccc(Cl)cc5)nc34)CC2)cc1,"inconclusive: 21.3 µM [inhibitor, partial curve, poor fit]"
12,CCOc1ccc(-n2c(SCC(=O)Nc3ccc(Br)cc3)nc3n[nH]c(C)c3c2=N)cc1,inactive
13,O=C(Cn1c(=O)sc2ccccc21)Nc1ccccc1C(=O)O,"inconclusive: 23.9 µM [inhibitor, partial curve, poor fit]"
14,COCCn1c(CCC(=O)Nc2ccc(OC)c(OC)c2)nc2cccnc21,inactive
15,O=C(NCc1ccccc1Cl)c1cc(-c2ccccc2)n[nH]1,"inconclusive: 23.9 µM [inhibitor, partial curve]"
16,O=C(CS(=O)(=O)c1nc(-c2ccc(Cl)cc2)cn1-c1ccccc1)Nc1cccc(Cl)c1,"inconclusive: 15.1 µM [inhibitor, partial curve]"
17,Cc1c(Cl)cccc1N(Cc1ccc(C(=O)O)cc1)S(=O)(=O)c1ccccc1,"inconclusive: 37.9 µM [inhibitor, partial curve, poor fit]"
18,CC(=O)Oc1ccccc1N(C(C)=O)S(=O)(=O)c1ccc2ccccc2c1,inactive
19,Cc1nc(-c2ccccc2)sc1-c1ccc(SCC(=O)Nc2ccccc2)nn1,"inconclusive: 6.01 µM [inhibitor, partial curve, poor fit]"
20,O=C(NNC(=O)c1n[nH]c2ccccc12)c1ccccc1,"inconclusive: 23.9 µM [inhibitor, single point]"
21,O=C(Nc1ccc(S(=O)(=O)Nc2ccccn2)cc1)c1ccc(Cl)cc1Cl,"inconclusive: 23.9 µM [inhibitor, partial curve, poor fit]"
22,Cc1oc(-c2cccc(Br)c2)nc1CN1CCC(C(=O)NCc2ccccc2)CC1,inactive
23,Cc1ccccc1C(=O)O/N=C(\c1ccccc1)c1ccccn1,active: 21.3 µM
24,COc1ccc(Nc2ncnc3c2c(C)c(C)n3CCO)cc1,active: 5.36 µM

# Reference: PubChem BioAssay AID588342 (National Center for Advancing Translational Sciences (NCATS), 2011)
